Measurements reported in publication PMC10538751.
No constants are given. Whether binding was seen depends on the method and setting. For part of these data: Binding seen in cells or lysates may run through a third protein. Some entries that bind do so weakly or less than the wild type. For part of these data: Tags and fused reporters may be left off the sequences shown.

Protein sequences, listed by entry. Tags and fused reporters are not part of them. Lines headed by an entry give the natural chain unless they say otherwise; changes in a name come on top.
UniProt F4IHJ0: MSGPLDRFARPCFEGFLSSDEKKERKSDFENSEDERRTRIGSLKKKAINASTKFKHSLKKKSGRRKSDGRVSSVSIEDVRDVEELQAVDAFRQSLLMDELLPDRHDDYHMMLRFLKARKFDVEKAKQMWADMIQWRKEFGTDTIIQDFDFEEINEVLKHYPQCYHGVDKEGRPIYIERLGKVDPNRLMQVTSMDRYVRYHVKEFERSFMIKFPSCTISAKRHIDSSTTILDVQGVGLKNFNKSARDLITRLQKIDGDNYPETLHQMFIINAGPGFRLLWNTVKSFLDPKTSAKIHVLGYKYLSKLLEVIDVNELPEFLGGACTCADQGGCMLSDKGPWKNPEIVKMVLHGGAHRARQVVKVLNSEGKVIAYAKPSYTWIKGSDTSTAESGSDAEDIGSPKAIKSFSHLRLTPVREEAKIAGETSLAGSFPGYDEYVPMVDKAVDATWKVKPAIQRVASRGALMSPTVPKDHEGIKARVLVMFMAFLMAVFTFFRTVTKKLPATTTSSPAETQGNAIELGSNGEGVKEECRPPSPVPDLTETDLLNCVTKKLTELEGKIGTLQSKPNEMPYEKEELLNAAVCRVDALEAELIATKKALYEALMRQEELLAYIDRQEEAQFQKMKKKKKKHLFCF
UniProt Q9LU77: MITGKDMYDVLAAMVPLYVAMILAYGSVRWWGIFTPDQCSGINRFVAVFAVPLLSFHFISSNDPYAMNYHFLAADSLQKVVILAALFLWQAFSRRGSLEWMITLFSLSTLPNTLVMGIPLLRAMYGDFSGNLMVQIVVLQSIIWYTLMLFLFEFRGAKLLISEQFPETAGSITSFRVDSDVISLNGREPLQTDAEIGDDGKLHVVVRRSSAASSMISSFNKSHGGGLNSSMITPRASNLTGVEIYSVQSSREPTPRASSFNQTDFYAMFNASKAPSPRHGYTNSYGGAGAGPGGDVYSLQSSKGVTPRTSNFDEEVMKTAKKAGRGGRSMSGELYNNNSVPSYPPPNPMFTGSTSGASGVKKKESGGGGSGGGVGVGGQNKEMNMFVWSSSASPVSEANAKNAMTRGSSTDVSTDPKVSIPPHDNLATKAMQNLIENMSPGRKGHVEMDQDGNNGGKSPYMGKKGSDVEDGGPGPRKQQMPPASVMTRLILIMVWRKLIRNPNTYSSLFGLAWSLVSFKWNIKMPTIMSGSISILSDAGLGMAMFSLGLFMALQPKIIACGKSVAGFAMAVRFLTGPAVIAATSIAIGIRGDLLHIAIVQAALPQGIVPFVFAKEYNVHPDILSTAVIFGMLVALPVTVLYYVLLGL

Experiments:
[1] = target: GST-SFH8 (full length, recombinant) (Arabidopsis thaliana) (UniProt F4IHJ0); experiment: native gel or EMSA; native polyacrylamide gel electrophoresis of recombinant GST-SFH8 and GST-SFH8^ΔIDR over time, detected by α-GST; both purified
[2] = target: PIN2-GFP (PIN2pro:PIN2-EGFP) (Arabidopsis thaliana) (UniProt Q9LU77); experiment: proximity ligation; whole-mount PLA (Duolink) on fixed, permeabilised roots of 4- to 5-day-old seedlings; antibody pairs α-GFP/α-SFH8, α-GFP/α-FLAG, α-PIN2/α-FLAG, α-mNeon/α-SFH8
[3] = target: T1, PIP2a-GFP (PLASMA MEMBRANE … PROTEIN 2a) (Arabidopsis thaliana) (UniProt P43286); experiment: as above
T1 sequence: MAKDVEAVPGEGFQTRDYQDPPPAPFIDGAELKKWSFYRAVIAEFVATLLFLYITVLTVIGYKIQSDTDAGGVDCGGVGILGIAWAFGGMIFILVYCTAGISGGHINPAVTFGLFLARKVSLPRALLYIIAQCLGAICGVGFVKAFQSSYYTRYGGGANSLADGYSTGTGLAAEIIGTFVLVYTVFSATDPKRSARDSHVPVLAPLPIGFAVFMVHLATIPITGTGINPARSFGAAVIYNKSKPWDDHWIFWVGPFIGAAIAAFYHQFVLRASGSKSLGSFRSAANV

[4] = target: PIN2-GFP (PIN2pro:PIN2-EGFP) (Arabidopsis thaliana) (UniProt Q9LU77); experiment: FRET or BRET; sensitized emission FRET in living roots between PIN2-GFP and SFH8-mScarlet (RPS5apro), epidermis and cortex

| Substance | binding [2] | binding [3] | also measured |
| --- | --- | --- | --- |
| GST-SFH8 (full length, recombinant) (from UniProt F4IHJ0 1-633) |  |  | binding [1]: binds weakly |
| SFH8^ΔIDR (endogenous SFH8 cleaved by ESP, region 3 onwards) (from UniProt F4IHJ0 85-633) (domain or fragment) | binds | no binding |  |
| SFH8-HF, C-terminally HF-tagged SFH8 as SFH8^ΔIDR (region 3 onwards) (from UniProt F4IHJ0 85-633) (domain or fragment) | binds |  |  |
| SFH8-mScarlet (RPS5apro), C-terminally tagged, in regions 3 and 4 (from UniProt F4IHJ0 85-633) (domain or fragment) |  |  | binding [4]: binds |
| SFH8, full length (endogenous, uncleaved form in the root) (from UniProt F4IHJ0 1-633) |  | no binding |  |
